Test results reported in the supplement of paper PMC3724861.
Some of the results follow.

Each sequence was assayed on T1, Caupolican (Caup) homeodomain DNA-binding domain (assay: PBM E-score (8-mer, recovered from the published 9-mer minima) (E-score (dimensionless, -0.5 to 0.5)); Drosophila protein; higher = stronger relative binding preference, active = 0.31 or more).
T1 sequence: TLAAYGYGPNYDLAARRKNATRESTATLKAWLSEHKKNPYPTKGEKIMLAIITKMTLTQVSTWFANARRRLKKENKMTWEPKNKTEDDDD
How it was run: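 Caup's homeodomain DNA-binding domain (residues 214-303) was made by in vitro transcription and translation and applied at 100 nM to custom-designed protein binding microarrays. Each value is an enrichment score that gives relative binding preference for a short DNA word, with higher meaning stronger. The 8-mer values were recovered from published 9-mer scores, each of which was the minimum of its two constituent 8-mer scores. A cutoff of 0.31 marks candidate sites.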

| Sequence | PBM E-score |
| --- | --- |
| CACACCTG | inactive: -0.0345 |
| ATAATGAG | inactive: 0.0535 |
| TCTTCAAA | inactive: 0.0437 |
| ATCCCTTA | inactive: 0.0322 |
| ATCTGTCG | inactive: 0.099 |
| CCATGCTA | inactive: 0.102 |
| CATGTTGA | active: 0.38 |
| GCCGTCTA | inactive: -0.119 |
| AGATTGAT | inactive: 0.0423 |
| GCATAGTA | inactive: 0.141 |
| AAGACGTG | inactive: 0.0275 |
| AAGGAGCG | inactive: -0.123 |
| GTCTGGAA | inactive: -0.00114 |
| GACGTTAC | inactive: 0.0391 |
| GATATGCA | inactive: 0.0393 |
| CAATGTGC | inactive: 0.0278 |
| ACGGATCC | inactive: -0.141 |
| ATGATCGA | inactive: 0.0925 |
| AAGATGGC | inactive: -0.0976 |
| AATTCACC | inactive: 0.0329 |
| GATATCCC | inactive: -0.018 |
| GCGACATA | inactive: 0.242 |
| AGGGTACC | inactive: -0.158 |
| AGGTTTAT | inactive: 0.0931 |

| Sequence | PBM E-score |
| --- | --- |
| GTGTGATA | ≥ 0.212 |
| GTGCAACA | inactive: 0.208 |
| TACCCTAA | inactive: 0.0159 |
| GAAGTAAC | inactive: 0.0896 |
| TGCCATAA | inactive: -0.0447 |
| CGGGGAAA | inactive: -0.129 |
| CACTTACC | inactive: 0.0417 |
| AGTAGAAA | inactive: 0.0433 |
| CAACTTAA | inactive: 0.133 |
| CCTGTGCG | inactive: -0.0874 |
| CGATGTTA | inactive: 0.297 |
| AGAACCGA | inactive: -0.088 |
| GCGACCAC | inactive: -0.14 |
| CAGAACCC | inactive: -0.153 |
| CTGCCCTC | inactive: -0.212 |
| GACTAGTC | inactive: 0.11 |
| AGTATACC | inactive: 0.111 |
| CACATCTA | inactive: 0.208 |
| GTACCCAA | inactive: 0.0255 |
| AGACCGGC | inactive: -0.0973 |
| AATGTCCC | inactive: 0.0508 |
| CAGGGAAA | inactive: 0.00986 |
| AAGCTGGC | inactive: -0.177 |
| ATACATTA | inactive: 0.219 |

| Sequence | PBM E-score |
| --- | --- |
| AGGCGACA | inactive: 0.0463 |
| AGGTTCGG | inactive: -0.164 |
| GATATGGA | inactive: 0.087 |
| ATCCGTGG | inactive: -0.177 |
| AATCCGAA | inactive: 0.0259 |
| GCATTTCA | inactive: 0.0257 |
| ATAAAACG | inactive: 0.104 |
| ACTATCGA | inactive: 0.0431 |
| ACTTTGGC | inactive: -0.0425 |
| CTCGCTGA | inactive: -0.119 |
| GAACCGTA | inactive: -0.0853 |
| CCGCAGCG | inactive: -0.208 |
| GCGTAAAC | inactive: -0.0748 |
| CAAACGGG | inactive: -0.0757 |
| AGGGGTGA | inactive: -0.118 |
| GTTCCTAA | inactive: 0.0711 |
| GCATGAGA | inactive: -0.0059 |
| CCAACTCA | inactive: -0.095 |
| ACATTGAC | inactive: 0.219 |
| CGAGCTCC | inactive: -0.171 |
| CCTCACAC | inactive: -0.0915 |
| ACTACTGC | inactive: 0.0623 |
| TGTTCCAA | inactive: 0.216 |
| CAAAGGTA | inactive: 0.0276 |

| Sequence | PBM E-score |
| --- | --- |
| GGCACAAC | inactive: 0.0276 |
| CTATCCGA | inactive: 0.124 |
| CCACATCC | inactive: -0.0474 |
| CAGACTGG | inactive: -0.0602 |
| GAAGACAA | inactive: 0.123 |
| TGAAGAAA | inactive: 0.0487 |
| CAATAATG | inactive: 0.109 |
| TCCTATAA | inactive: 0.0664 |
| GCCTAGAA | inactive: -0.135 |
| GATTCAGC | inactive: -0.0453 |
| ACATGTTG | active: 0.453 |
| CCAAATCC | inactive: -0.0997 |
| GCGAGGGA | inactive: -0.196 |
| ACATTTCC | inactive: 0.147 |
| CTACAGGC | inactive: -0.0109 |
| CACTTCGA | inactive: -0.0269 |
| GCCACGCC | inactive: -0.25 |
| ATAGCGTC | inactive: 0.0181 |
| ATGAACGC | inactive: 0.0253 |
| GTCGAAAC | inactive: -0.00765 |
| CAAAAATA | inactive: 0.0606 |
| GGTTGTAC | inactive: 0.222 |
| AATCAACG | inactive: 0.0957 |
| ACTGGCTC | inactive: -0.118 |

| Sequence | PBM E-score |
| --- | --- |
| ACGTTCGC | inactive: -0.0753 |
| TATGGACA | inactive: 0.202 |
| AGAACGGC | inactive: -0.0475 |
| CCATGAAC | inactive: 0.0647 |
| TAGTTAGA | ≥ 0.102 |
| ACTCAATC | inactive: 0.0442 |
| ATGTTAGC | active: 0.314 |
| AGTTGCAC | inactive: 0.0925 |
| AGTCGTGC | inactive: -0.0465 |
| AGGTCCCC | inactive: -0.328 |
| CAGGTGCG | inactive: -0.106 |
| CATTGTGC | inactive: 0.109 |
| CGGCGGCC | inactive: -0.282 |
| TACTAACA | inactive: 0.253 |
| CAAAGTTC | inactive: -0.0431 |
| CTTATTAA | inactive: 0.0685 |
| AGTATTCG | inactive: -0.0184 |
| CAGGGCAG | inactive: -0.156 |
| AATCGGCT | inactive: -0.0112 |
| GCCCATCC | inactive: -0.2 |
| ACCCAGAC | inactive: -0.119 |
| ACATTCTC | inactive: 0.11 |
| ACACCGCG | inactive: 0.0608 |
| CCTTATCA | inactive: 0.108 |

| Sequence | PBM E-score |
| --- | --- |
| GAACCGGC | inactive: -0.153 |
| CCTGTGAG | inactive: 0.0227 |
| CTAGGTTC | inactive: -0.0599 |
| GGTACACA | inactive: 0.28 |
| CACAGATG | inactive: 0.135 |
| CAGGAGAA | inactive: -0.0275 |
| AATCCGTG | inactive: 0.0483 |
| CGTGCGGA | inactive: -0.126 |
| GACGTTCC | inactive: -0.0625 |
| GAATACTA | inactive: 0.148 |
| ATAGGTTA | inactive: 0.119 |
| AGTAGACT | inactive: 0.0381 |
| AACACCTT | inactive: 0.152 |
| GACGAGGC | inactive: -0.186 |
| TCTTCCAA | inactive: -0.0276 |
| TAGCCACA | inactive: -0.0162 |
| CAGCATAA | inactive: 0.0511 |
| GGATTCAA | inactive: -0.0694 |
| CATAAAAA | inactive: 0.166 |
| CCTAAATC | inactive: 0.0181 |
| AAACATCG | inactive: 0.217 |
| CTTGTTGA | inactive: 0.26 |
